# Patent publication US11618753B2 (priority 2018, dated 2023)
# Where a name gives a salt, the structure may show the parent alone.
# System: MLKL phosphorylation, HT29-L23 human colorectal adenocarcinoma cells
# Assay: cells
# Details: read-out: pMLKL HCS Cell Assay (IC50, uM)
row,SMILES,IC50
1,"COc1ncc(-c2cc(C(F)(F)F)c3c(N)ncnn23)cc1C(=O)NC1CN(C(=O)[C@@](C)(O)C(F)(F)F)CC[C@H]1F (stereo in doubt) [Example 1580, 5-[4-amino-5-(trifluoromethyl)pyrrolo[2,1-f][1,2,4]triazin-7-yl]-N-[(3R,4R)-4-fluoro-1-[(2R)-3,3,3-trifluoro-2-hydroxy-2-methylpropanoyl]piperidin-3-yl]-2-methoxypyridine-3-carboxamide]",0.117 µM
2,"Nc1ncnn2c(-c3cc(C(=O)N[C@@H]4CN(C(=O)C5(F)CC5)C[C@@H]4F)c(F)cc3F)cc(C(F)(F)F)c12 [Example 779, 5-[4-amino-5-(trifluoromethyl)pyrrolo[2,1-f][1,2,4]triazin-7-yl]-2,4-difluoro-N-[(3R,4S)-4-fluoro-1-(1-fluorocyclopropanecarbonyl)pyrrolidin-3-yl]benzamide]",0.048 µM
3,"Cc1ccc(-c2cc(C(F)(F)F)c3c(N)ncnn23)cc1C(=O)N[C@@H]1CN(C(=O)c2ccc(F)cn2)C[C@@H]1F [Example 1012, 5-[4-amino-5-(trifluoromethyl)pyrrolo[2,1-f][1,2,4]triazin-7-yl]-N-[(3R,4S)-4-fluoro-1-(5-fluoropyridine-2-carbonyl)pyrrolidin-3-yl]-2-methylbenzamide]",0.0071 µM
4,"COc1ccc(-c2cc(C(F)(F)F)c3c(N)ncnn23)cc1C(=O)N[C@@H]1CN(C(=O)C2(F)CC2)C[C@@H]1F [Example 1127, 5-[4-amino-5-(trifluoromethyl)pyrrolo[2,1-f][1,2,4]triazin-7-yl]-N-[(3R,4S)-4-fluoro-1-(1-fluorocyclopropanecarbonyl)pyrrolidin-3-yl]-2-methoxybenzamide]",0.014 µM
5,"COc1cc(C(=O)N[C@@H]2CN(C(=O)C3CC(F)(F)C3)C[C@@H]2F)cc(-c2cc(C(F)(F)F)c3c(N)ncnn23)c1 [Example 584, 3-[4-amino-5-(trifluoromethyl)pyrrolo[2,1-f][1,2,4]triazin-7-yl]-N-[(3R,4S)-1-(3,3-difluorocyclobutanecarbonyl)-4-fluoropyrrolidin-3-yl]-5-methoxybenzamide]",0.01 µM
6,"COc1ncc(-c2c(C#N)cc3c(N)ncnn23)cc1C(=O)N[C@H](C)c1cc(C(F)(F)F)ccc1F [Example 549, (R)-5-(4-amino-6-cyanopyrrolo[2,1-f][1,2,4]triazin-7-yl)-N-(1-(2-fluoro-5-(trifluoromethyl)phenyl)ethyl)-2-methoxynicotinamide]",0.018 µM
7,"CCCCS(=O)(=O)N1C[C@H](F)[C@H](NC(=O)c2cc(-c3cc(C(F)(F)F)c4c(N)ncnn34)cnc2OC)C1 [Example 1482, 5-[4-amino-5-(trifluoromethyl)pyrrolo[2,1-f][1,2,4]triazin-7-yl]-N-[(3R,4S)-1-(butane-1-sulfonyl)-4-fluoropyrrolidin-3-yl]-2-methoxypyridine-3-carboxamide]",0.017 µM
8,"Cc1ncc(-c2cc(C(F)(F)F)c3c(N)ncnn23)cc1C(=O)N1CCCC(C)(C(O)c2ccc(F)cc2)C1 (single isomer, unassigned) [Example 1739, (5-(4-amino-5-(trifluoromethyl)pyrrolo[2,1-f][1,2,4]triazin-7-yl)-2-methylpyridin-3-yl)(3-((4-fluorophenyl)(hydroxy)methyl)-3-methylpiperidin-1-yl)methanone]",0.046 µM
9,"Cc1cc(F)c(-c2cc(C(F)(F)F)c3c(N)ncnn23)cc1C(=O)N[C@@H]1CN(C(=O)c2cnccc2C(F)(F)F)C[C@@H]1F [Example 855, 5-[4-amino-5-(trifluoromethyl)pyrrolo[2,1-f][1,2,4]triazin-7-yl]-4-fluoro-N-[(3R,4S)-4-fluoro-1-[4-carbonyl]pyrrolidin-3-yl]-2-methylbenzamide]",0.041 µM
10,"COc1ncc(-c2cc(CNCCO)c3c(N)ncnn23)cc1C(=O)N[C@@H]1CN(C(=O)C2CC(F)(F)C2)C[C@@H]1F [Example 500, 5-(4-amino-5-{[(2-hydroxyethyl)amino]methyl}pyrrolo[2,1-f][1,2,4]triazin-7-yl)-N-[(3R,4S)-1-(3,3-difluorocyclobutanecarbonyl)-4-fluoropyrrolidin-3-yl]-2-methoxypyridine-3-carboxamide]",0.036 µM
11,"COc1ncc(-c2cc(C(F)(F)F)c3c(N)ncnn23)cc1C(=O)N[C@@H]1CN(C(=O)c2cccnn2)C[C@@H]1F [Example 1210, 5-[4-amino-5-(trifluoromethyl)pyrrolo[2,1-f][1,2,4]triazin-7-yl]-N-[(3R,4S)-4-fluoro-1-(pyridazine-3-carbonyl)pyrrolidin-3-yl]-2-methoxypyridine-3-carboxamide]",0.264 µM
12,"Nc1ncnn2c(-c3ccc(OC(F)(F)F)c(C(=O)N[C@@H]4CN(C(=O)C5CCC(F)(F)C5)C[C@@H]4F)c3)cc(C(F)(F)F)c12 (stereo partly drawn) [Example 1055, 5-[4-amino-5-(trifluoromethyl)pyrrolo[2,1-f][1,2,4]triazin-7-yl]-N-[(3R,4S)-1-(3,3-difluorocyclopentanecarbonyl)-4-fluoropyrrolidin-3-yl]-2-(trifluoromethoxy)benzamide]",0.053 µM
13,"CCOCCOC(=O)N1C[C@H](F)[C@H](NC(=O)c2cc(-c3cc(C(F)(F)F)c4c(N)ncnn34)cnc2OC)C1 [Example 1432, 2-ethoxyethyl (3R,4S)-3-{5-[4-amino-5-(trifluoromethyl)pyrrolo[2,1-f][1,2,4]triazin-7-yl]-2-methoxypyridine-3-amido}-4-fluoropyrrolidine-1-carboxylate]",0.291 µM
14,"COc1ncc(-c2cc(C(F)(F)F)c3c(N)ncnn23)cc1C(=O)N[C@@H]1CN(C(=O)CC2CCC2)C[C@@H]1F [Example 1204, 5-[4-amino-5-(trifluoromethyl)pyrrolo[2,1-f][1,2,4]triazin-7-yl]-N-[(3R,4S)-1-(2-cyclobutylacetyl)-4-fluoropyrrolidin-3-yl]-2-methoxypyridine-3-carboxamide]",0.034 µM
15,"CC(C)CC(=O)N1C[C@H](F)[C@H](NC(=O)c2cc(-c3cc(CN4CCC(C(F)(F)F)CC4)c4c(N)ncnn34)ccc2Cl)C1 [Example 1154, 5-(4-amino-5-{[4-(trifluoromethyl)piperidin-1-yl]methyl}pyrrolo[2,1-f][1,2,4]triazin-7-yl)-2-chloro-N-[(3R,4S)-4-fluoro-1-(3-methylbutanoyl)pyrrolidin-3-yl]benzamide]",0.001 µM
16,"CCc1ccc(-c2cc(C(F)(F)F)c3c(N)ncnn23)cc1C(=O)N[C@@H]1CN(C(=O)c2ccccc2F)C[C@@H]1F [Example 982, 5-[4-amino-5-(trifluoromethyl)pyrrolo[2,1-f][1,2,4]triazin-7-yl]-2-ethyl-N-[(3R,4S)-4-fluoro-1-(2-fluorobenzoyl)pyrrolidin-3-yl]benzamide]",0.008 µM
17,"COc1ncc(-c2cc(C(F)(F)F)c3c(N)ncnn23)cc1C(=O)N[C@@H]1CN(S(=O)(=O)C(C)C(C)C)C[C@@H]1F (stereo partly drawn) [Example 1464, 5-[4-amino-5-(trifluoromethyl)pyrrolo[2,1-f][1,2,4]triazin-7-yl]-N-[(3R,4S)-4-fluoro-1-(3-methylbutane-2-sulfonyl)pyrrolidin-3-yl]-2-methoxypyridine-3-carboxamide]",0.0047 µM
18,"COc1ncc(-c2cc(C(F)(F)F)c3c(N)ncnn23)cc1C(=O)Nc1nc(C(=O)NCC2CC2)co1 [Example 1301, 5-[4-amino-5-(trifluoromethyl)pyrrolo-[2,1-f][1,2,4]triazin-7-yl]-N-{4-[(cyclopropylmethyl)carbamoyl]-1,3-oxazol-2-yl}-2-methoxypyridine-3-carboxamide]",0.298 µM
19,"COc1ncc(-c2cc(C(F)(F)F)c3c(N)ncnn23)cc1C(=O)N[C@@H]1CN(S(=O)(=O)C(C)C(F)(F)F)C[C@@H]1F (stereo partly drawn) [Example 1466, 5-[4-amino-5-(trifluoromethyl)pyrrolo[2,1-f][1,2,4]triazin-7-yl]-N-[(3R,4S)-4-fluoro-1-(1,1,1-trifluoropropane-2-sulfonyl)pyrrolidin-3-yl]-2-methoxypyridine-3-carboxamide]",0.0033 µM
20,"Cc1ncc(-c2cc(C(F)(F)F)c3c(N)ncnn23)cc1C(=O)Nc1cnn(C(c2ccccc2)C(F)(F)F)c1 (stereo not drawn) [Example 1814, 5-(4-amino-5-(trifluoromethyl)pyrrolo[2,1-f][1,2,4]triazin-7-yl)-2-methyl-N-(1-(2,2,2-trifluoro-1-phenylethyl)-1H-pyrazol-4-yl)nicotinamide]",0.0021 µM
21,"C[C@@](O)(C(=O)N1C[C@H](F)[C@H](NC(=O)c2cc(-c3cc(C(F)(F)F)c4c(N)ncnn34)ccc2C(F)(F)F)C1)C(F)(F)F [Example 904, 5-[4-amino-5-(trifluoromethyl)pyrrolo[2,1-f][1,2,4]triazin-7-yl]-N-[(3R,4S)-4-fluoro-1-[(28)-3,3,3-trifluoro-2-hydroxy-2-methylpropanoyl]pyrrolidin-3-yl]-2-(trifluoromethyl)benzamide]",0.015 µM
22,"[2H]C([2H])([2H])Oc1ncc(-c2cc(C(F)(F)F)c3c(N)ncnn23)cc1C(=O)N[C@@H]1CN(C(=O)c2cc(F)ccc2F)C[C@@H]1F [Example 383, 5-[4-amino-5-(trifluoromethyl)pyrrolo [2,1-f][1,2,4]triazin-7-yl]-N-[(3R,4S)-1-(2,5-difluorobenzoyl)-4-fluoro-pyrrolidin-3-yl]-2-(deutero)methoxy-pyridine-3-carboxamide, TFA]",0.0072 µM
23,"COc1ccc(C)cc1S(=O)(=O)N1C[C@H](F)[C@H](NC(=O)c2cc(-c3cc(C(F)(F)F)c4c(N)ncnn34)cnc2OC)C1 [Example 1475, 5-[4-amino-5-(trifluoromethyl)pyrrolo[2,1-f][1,2,4]triazin-7-yl]-N-[(3R,4S)-4-fluoro-1-(2-methoxy-5-methylbenzenesulfonyl)pyrrolidin-3-yl]-2-methoxypyridine-3-carboxamide]",0.191 µM
24,"COc1cc(F)c(-c2cc(C(F)(F)F)c3c(N)ncnn23)cc1C(=O)N[C@@H]1CN(C(=O)C2CC(F)C2)C[C@@H]1F (stereo partly drawn) [Example 872, 5-[4-amino-5-(trifluoromethyl)pyrrolo[2,1-f][1,2,4]triazin-7-yl]-4-fluoro-N-[(3R,4S)-4-fluoro-1-(3-fluorocyclobutanecarbonyl)pyrrolidin-3-yl]-2-methoxybenzamide]",0.0076 µM
